Measurements: the supplement of paper PMC6657886
MIC of clinical N. gonorrhoeae isolates (2015-2017) by agar dilution on GC agar with 1% IsoVitaleX (ranges not stated); higher = less susceptible. No active / inactive call per row; the paper counts benzylpenicillin above 1 and ceftriaxone above 0.125 mg/L as resistant (EUCAST). The method is stated for benzylpenicillin and ceftriaxone and assumed for the other drugs. '<=' is inferred from pile-ups at the end values. Isolates are numbered anew.

Experiments:
Assay in all cases: Agar dilution on enriched GC agar; resistance determinants by microarray.
[1] = compound: CC1(C)S[C@@H]2[C@H](NC(=O)Cc3ccccc3)C(=O)N2[C@H]1C(=O)O [benzylpenicillin]
[2] = compound: CC[C@H]1OC(=O)[C@H](C)[C@@H](O[C@H]2C[C@@](C)(OC)[C@@H](O)[C@H](C)O2)[C@H](C)[C@@H](O[C@@H]2O[C@H](C)C[C@H](N(C)C)[C@H]2O)[C@](C)(O)C[C@@H](C)CN(C)[C@H](C)[C@@H](O)[C@]1(C)O [azithromycin]
[3] = compound: CN(C)[C@@H]1C(O)=C(C(N)=O)C(=O)[C@@]2(O)C(O)=C3C(=O)c4c(O)cccc4[C@@](C)(O)[C@H]3C[C@@H]12 [tetracycline]
[4] = compound: CN[C@@H]1[C@H](O)[C@H](NC)[C@H]2O[C@@]3(O)C(=O)C[C@@H](C)O[C@H]3O[C@@H]2[C@H]1O [spectinomycin]
[5] = compound: CO/N=C(\C(=O)N[C@@H]1C(=O)N2C(C(=O)O)=C(CSc3nc(=O)c(O)nn3C)CS[C@H]12)c1csc(N)n1 [ceftriaxone]

Test System | MIC [1] [µg/mL] | MIC [2] [µg/mL] | MIC [3] [µg/mL] | MIC [4] [µg/mL] | MIC [5] [µg/mL]
Neisseria gonorrhoeae isolate 144 (blaTEM plasmid: no, gyrA: Thr91, Gly95, mtrR promoter: wild type, parC: Arg87, Glu91, penA: ins345Asp, ponA: wild type, porB: wild type, rpsJ: wild type, tetM plasmid: no) | 0.12 | 0.12 | 0.5 | 16 | 0.015
Neisseria gonorrhoeae isolate 204 (blaTEM plasmid: no, gyrA: wild type, mtrR promoter: wild type, parC: wild type, penA: wild type, ponA: wild type, porB: wild type, rpsJ: wild type, tetM plasmid: no) | ≤ 0.015 | 0.25 | 0.25 | 8 | ≤ 0.002
Neisseria gonorrhoeae isolate 476 (blaTEM plasmid: no, gyrA: Phe91, Gly95, mtrR promoter: wild type, parC: Arg87, Glu91, penA: ins345Asp, ponA: wild type, porB: Asp120, Ala121, rpsJ: Met57, tetM plasmid: no) | 0.12 | 0.06 | 0.5 | 16 | ≤ 0.002
Neisseria gonorrhoeae isolate 219 (blaTEM plasmid: no, gyrA: wild type, mtrR promoter: wild type, parC: wild type, penA: ins345Asp, ponA: Pro421, porB: wild type, rpsJ: Met57, tetM plasmid: no) | 0.12 | 0.06 | 0.25 | 4 | ≤ 0.002
Neisseria gonorrhoeae isolate 103 (blaTEM plasmid: no, gyrA: wild type, mtrR promoter: wild type, parC: wild type, penA: wild type, ponA: wild type, porB: wild type, rpsJ: wild type, tetM plasmid: no) | 0.12 | 0.004 | 0.25 | 32 | ≤ 0.002
Neisseria gonorrhoeae isolate 458 (blaTEM plasmid: no, gyrA: Thr91, Gly95, mtrR promoter: wild type, parC: wild type, penA: ins345Asp, ponA: Pro421, porB: wild type, rpsJ: Met57, tetM plasmid: no) | 0.5 | 0.06 | 0.5 | 12 | 0.015
Neisseria gonorrhoeae isolate 495 (blaTEM plasmid: no, gyrA: Phe91, Gly95, mtrR promoter: -35delA, parC: Arg87, Glu91, penA: ins345Asp, ponA: Pro421, porB: Asn120, Asp121, rpsJ: Met57, tetM plasmid: no) | 0.5 | 0.03 | 2 | 32 | 0.008
Neisseria gonorrhoeae isolate 503 (blaTEM plasmid: no, gyrA: wild type, mtrR promoter: wild type, parC: wild type, penA: ins345Asp, ponA: wild type, porB: wild type, rpsJ: Met57, tetM plasmid: no) | 0.03 | 0.03 | 0.5 | 16 | ≤ 0.002
Neisseria gonorrhoeae isolate 98 (blaTEM plasmid: no, gyrA: wild type, mtrR promoter: wild type, parC: wild type, penA: wild type, ponA: wild type, porB: wild type, rpsJ: wild type, tetM plasmid: no) | ≤ 0.015 | 0.12 | 0.06 | 8 | ≤ 0.002
Neisseria gonorrhoeae isolate 502 (blaTEM plasmid: no, gyrA: Phe91, Asn 95, mtrR promoter: -35delA, parC: wild type, penA: ins345Asp, ponA: Pro421, porB: Asn120, Asp121, rpsJ: wild type, tetM plasmid: no) | 2 | 0.25 | 0.5 | 16 | 0.015
Neisseria gonorrhoeae isolate 376 (blaTEM plasmid: no, gyrA: wild type, mtrR promoter: wild type, parC: wild type, penA: wild type, ponA: wild type, porB: wild type, rpsJ: wild type, tetM plasmid: no) | ≤ 0.015 | 0.03 | 0.25 | 32 | ≤ 0.002
Neisseria gonorrhoeae isolate 216 (blaTEM plasmid: no, gyrA: Phe91, Asn95, mtrR promoter: -35delA, parC: Arg87, Glu91, penA: ins345Asp, ponA: Pro421, porB: Thr 120, Asn 121, rpsJ: Met57, tetM plasmid: no) | 1 | 0.5 | 1 | 32 | 0.03
Neisseria gonorrhoeae isolate 117 (blaTEM plasmid: no, gyrA: Phe91, Gly95, mtrR promoter: wild type, parC: Arg87, Glu91, penA: ins345Asp, ponA: Pro421, porB: Asp120, Ala121, rpsJ: Met57, tetM plasmid: no) | 0.25 | 0.015 | 0.5 | 32 | 0.015
Neisseria gonorrhoeae isolate 227 (blaTEM plasmid: no, gyrA: wild type, mtrR promoter: wild type, parC: wild type, penA: wild type, ponA: wild type, porB: wild type, rpsJ: wild type, tetM plasmid: no) | ≤ 0.015 | 0.25 | 0.25 | 16 | ≤ 0.002
Neisseria gonorrhoeae isolate 8 (blaTEM plasmid: yes, gyrA: Phe91, Asn 95, mtrR promoter: wild type, parC: Asn87, Lys91, penA: ins345Asp, ponA: Pro421, porB: wild type, rpsJ: Met57, tetM plasmid: yes) | ≥ 32 | 0.06 | 64 | 16 | 0.004
Neisseria gonorrhoeae isolate 81 (blaTEM plasmid: no, gyrA: Phe91, Gly95, mtrR promoter: wild type, parC: Arg87, Glu91, penA: ins345Asp, ponA: Pro421, porB: wild type, rpsJ: Met57, tetM plasmid: no) | 0.12 | 0.004 | 0.5 | 32 | 0.06
Neisseria gonorrhoeae isolate 422 (blaTEM plasmid: no, gyrA: Phe91, Asn95, mtrR promoter: -35delA, parC: Arg87, Glu91, penA: ins345Asp, ponA: Pro421, porB: wild type, rpsJ: Met57, tetM plasmid: no) | 1 | 0.5 | 1 | 16 | ≤ 0.002
Neisseria gonorrhoeae isolate 431 (blaTEM plasmid: no, gyrA: Phe91, Asn95, mtrR promoter: -35delA, parC: Arg87, Glu91, penA: ins345Asp, ponA: wild type, porB: Gly120, Gly121, rpsJ: Met57, tetM plasmid: yes) | 0.25 | 0.25 | 32 | 32 | 0.008
Neisseria gonorrhoeae isolate 41 (blaTEM plasmid: no, gyrA: wild type, mtrR promoter: -35delA, parC: wild type, penA: ins345Asp, ponA: wild type, porB: Lys 120, Asp121, rpsJ: Met57, tetM plasmid: no) | 0.5 | 0.03 | 2 | 32 | 0.015
Neisseria gonorrhoeae isolate 155 (blaTEM plasmid: no, gyrA: Phe91, Gly95, mtrR promoter: wild type, parC: Arg87, Glu91, penA: ins345Asp, ponA: Pro421, porB: wild type, rpsJ: Met57, tetM plasmid: no) | 0.25 | 0.06 | 0.5 | 16 | ≤ 0.002
Neisseria gonorrhoeae isolate 446 (blaTEM plasmid: no, gyrA: wild type, mtrR promoter: wild type, parC: wild type, penA: ins345Asp, ponA: Pro421, porB: wild type, rpsJ: wild type, tetM plasmid: no) | 0.12 | 0.015 | 0.12 | 8 | ≤ 0.002
Neisseria gonorrhoeae isolate 405 (blaTEM plasmid: no, gyrA: wild type, mtrR promoter: wild type, parC: wild type, penA: ins345Asp, ponA: wild type, porB: wild type, rpsJ: wild type, tetM plasmid: no) | 0.06 | 0.5 | 0.5 | 32 | ≤ 0.002
Neisseria gonorrhoeae isolate 416 (blaTEM plasmid: no, gyrA: Thr91, Gly95, mtrR promoter: wild type, parC: wild type, penA: ins345Asp, ponA: wild type, porB: wild type, rpsJ: wild type, tetM plasmid: no) | 0.5 | 0.03 | 0.06 | 32 | 0.015
Neisseria gonorrhoeae isolate 293 (blaTEM plasmid: no, gyrA: Thr91, Gly95, mtrR promoter: wild type, parC: wild type, penA: ins345Asp, ponA: wild type, porB: Asp120, Gly121, rpsJ: Met57, tetM plasmid: no) | 1 | 0.5 | 1 | 32 | 0.015
Neisseria gonorrhoeae isolate 484 (blaTEM plasmid: no, gyrA: wild type, mtrR promoter: -35delA, parC: wild type, penA: ins345Asp, ponA: wild type, porB: Asn120, Ala121, rpsJ: wild type, tetM plasmid: no) | ≤ 0.015 | 0.015 | 0.06 | 8 | ≤ 0.002
